{"source": "the RNAGym collection of RNA variant scans (doi:10.7554/elife.90254)", "parents": {"B1": {"name": "OR4K15 (parent)", "chain": "GUUAACGGUCAUAGGCCAUGGAAACUAGGAGCACCAUUUCGCUGCCAGUGAAGAAAUGAACAAAGAAAAUCUGGGCCAGGCAGGCAUCAAAAGAAAUAGUCUUGCGCUCAACCAGAAAGUCUGUAAUCAUUUUAAGGGUA"}}, "note": "Read counts are not given, so values of variants with three or more changes are uncertain.", "data": [{"variants_of": "B1", "assay": "self-cleavage, relative activity (ratio to wild type); higher = more cleavage; in vitro, sequencing; the parent is a self-cleaving ribozyme", "values": [{"variant": "U37C A55G A59G G137A", "self-cleavage": 0.77}, {"variant": "A22U A55G A64G U103A", "self-cleavage": 0.74}, {"variant": "A59G U100C U103C", "self-cleavage": 1.13}, {"variant": "A5U U37C A89U U102C", "self-cleavage": 0.64}, {"variant": "A11G A59G U72A U108A U131C", "self-cleavage": 0.01}, {"variant": "A52U A64G U102A", "self-cleavage": 1.08}, {"variant": "U9C G31A A36U U102C", "self-cleavage": 1.65}, {"variant": "U9C U57A A78G", "self-cleavage": 0.19}, {"variant": "A33G G83A A117G", "self-cleavage": 2.38}, {"variant": "A56G A66G U120C", "self-cleavage": 1.03}, {"variant": "A13U A24U C71U", "self-cleavage": 0.15}, {"variant": "A90U U108A A110G", "self-cleavage": 0.01}, {"variant": "A5G G44A A89G U102A U108C A114C A116U A118G", "self-cleavage": 0.01}, {"variant": "U49C A59G U72C A94U", "self-cleavage": 0.24}, {"variant": "A11U A96G A114U A116G", "self-cleavage": 0}, {"variant": "C35U A56G G137U", "self-cleavage": 1.09}, {"variant": "A30G U43A A54G", "self-cleavage": 0.59}, {"variant": "A11U A23G A51G A66G", "self-cleavage": 0.89}, {"variant": "U43C A47U A64G C105U U130C", "self-cleavage": 0.04}, {"variant": "A24G G31U U37C U72A", "self-cleavage": 0.37}, {"variant": "U2C U39C A95G U131C U133C", "self-cleavage": 2.02}, {"variant": "A68G A89C A95G A126C", "self-cleavage": 0.94}, {"variant": "U38C A96G A129G A135G", "self-cleavage": 1.38}, {"variant": "A56G A90G U100G", "self-cleavage": 1.35}, {"variant": "U108A A111G U122C", "self-cleavage": 0}, {"variant": "A4G A23G U39C A135U", "self-cleavage": 0.34}, {"variant": "A27G U39C A47U U127C", "self-cleavage": 0.1}, {"variant": "A27G U70C A111G U120C", "self-cleavage": 0.01}, {"variant": "U2A U120C A135C A140U", "self-cleavage": 0.49}, {"variant": "U2C A18U A22G A55U A63G U132C", "self-cleavage": 0.66}, {"variant": "U43G A59G U70C U87C A126G", "self-cleavage": 1.27}, {"variant": "A36U A59G G115A U122C", "self-cleavage": 0.11}, {"variant": "U12C U37C U124C", "self-cleavage": 1.37}, {"variant": "A11U A51G A59U", "self-cleavage": 1.35}, {"variant": "A30G A90G U100A U127C", "self-cleavage": 0.29}, {"variant": "A92U U100C U103C C105U", "self-cleavage": 0.14}, {"variant": "U9C G28U A47G A126C U133C", "self-cleavage": 0.44}, {"variant": "A51G A90G A125U U127C", "self-cleavage": 0.67}, {"variant": "C35A A55G A86U U130C", "self-cleavage": 1.31}, {"variant": "A63G A69G A95G A96G", "self-cleavage": 1.18}, {"variant": "A23G A36G A51G U87C", "self-cleavage": 0.53}, {"variant": "C34U U37C U131C", "self-cleavage": 0.02}, {"variant": "C34U U49A A78U A86U U97C C128U", "self-cleavage": 0.2}, {"variant": "A11G A91G U102C", "self-cleavage": 2.27}, {"variant": "A18U A52G A114G U131C", "self-cleavage": 0.15}, {"variant": "U43A A68G G79A A114U", "self-cleavage": 0.05}, {"variant": "A36G U70A A91G A117G", "self-cleavage": 0.66}, {"variant": "A56C A67U U127G", "self-cleavage": 1.76}, {"variant": "U19A A51G A63G C81A A82U U102C U127C", "self-cleavage": 0.18}, {"variant": "A24C U39C A95G U108C", "self-cleavage": 0.02}, {"variant": "A55G G104A A116U A129G A135C", "self-cleavage": 0}, {"variant": "U19C A33G A36G U37C U72A G93U", "self-cleavage": 0.21}, {"variant": "A86G U120C U133C", "self-cleavage": 1.23}, {"variant": "A18U U37C A54G U108C A114G", "self-cleavage": 0.01}, {"variant": "A22G A23U A54G A125G", "self-cleavage": 0.49}, {"variant": "A23G A30U A82C A89G", "self-cleavage": 0.07}, {"variant": "U19C A24C G123A", "self-cleavage": 1.11}, {"variant": "A13G A64U A86G U97C U102C", "self-cleavage": 1.4}, {"variant": "A66G A91G A114G A118G U132C", "self-cleavage": 0.31}, {"variant": "A27U U87G A90G A92G", "self-cleavage": 0.59}, {"variant": "U57G U87A A92G A118G", "self-cleavage": 0.31}, {"variant": "G14U A111G U133C", "self-cleavage": 0.02}, {"variant": "U12C U26C A62G C85A", "self-cleavage": 0.55}, {"variant": "A5G A111G A116G U131C", "self-cleavage": 0.01}, {"variant": "U2C A22G A36G U102A", "self-cleavage": 0.93}, {"variant": "U3C A11G A118G U120C", "self-cleavage": 0.23}, {"variant": "U39C A95G A129G", "self-cleavage": 1.85}, {"variant": "A67G A92G U120C", "self-cleavage": 0.1}, {"variant": "A33G A55G U122C", "self-cleavage": 0.42}, {"variant": "A13G A59G A67G G84A", "self-cleavage": 1.02}, {"variant": "A90C A96G G115U A118G U131C", "self-cleavage": 0.01}, {"variant": "A55G A125G U131C", "self-cleavage": 0.98}, {"variant": "U2A A60G A66G", "self-cleavage": 1.32}, {"variant": "U9A A23G C107U", "self-cleavage": 0.1}, {"variant": "A11G U43C A135G", "self-cleavage": 0.77}, {"variant": "U9A G73A U131C", "self-cleavage": 0.14}, {"variant": "A22G U100C A129G", "self-cleavage": 1.85}, {"variant": "U9C A24G A66U", "self-cleavage": 0.6}, {"variant": "A22G U43C U108C A140G", "self-cleavage": 0.02}, {"variant": "A56G A60G A68G", "self-cleavage": 0.49}, {"variant": "U9G A30U U100A C101A", "self-cleavage": 0.1}, {"variant": "A11U U19G A52G A111G", "self-cleavage": 0.06}, {"variant": "U49C A92G C105G", "self-cleavage": 0.01}]}]}
